Laboratory results reported in PubChem BioAssay AID1240 (Sanford-Burnham Center for Chemical Genomics, 2008).
Among all 50,000 compounds or so, about 800 (1.6%) showed an effect of 50% or more. The list shows a part of the results.

target: Bcl-2-like protein 10 (Homo sapiens) (UniProt Q9HD36); test: Phenotype converters, Bcl-B/TR3 peptide binding displacement, primary biochemical FP (AID 1240); settings: GST-Bcl-B / FITC-TR3 peptide fluorescence polarization; stronger effect = higher value; compound at 3.75 mg/L;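 also: 0% = Bcl-B with tracer peptide and DMSO and 100% = tracer peptide lacking Bcl-B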
UniProt Q9HD36, sequence (Q9HD36 whole entry, looked up): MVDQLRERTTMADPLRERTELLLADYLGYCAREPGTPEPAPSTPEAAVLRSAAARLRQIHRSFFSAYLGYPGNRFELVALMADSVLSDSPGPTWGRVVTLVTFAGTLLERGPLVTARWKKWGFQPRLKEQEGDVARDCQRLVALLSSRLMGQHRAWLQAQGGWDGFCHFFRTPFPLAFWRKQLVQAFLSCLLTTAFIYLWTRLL

Row | SMILES | displacement [%]
1 | O=S(=O)(c1ccc(C2=CSC3=NCCN23)cc1)N1CCCCC1 | -1.6
2 | COc1cc(/C=C2\C(=O)N(c3cccc(C(=O)O)c3)N=C2C)c([N+](=O)[O-])cc1OC | -2
3 | COc1ccc(C(=O)Oc2ccc(C(=S)N3CCC(C)CC3)cc2OC)cc1 | -9.2
4 | CC(=O)c1ccc(NC(=O)C2CCC(C)(C(=O)O)C2(C)C)cc1 (stereo unspecified) | -1.2
5 | N#CC1=C(N)C(C#N)(C#N)C(c2ccc(Cl)cc2Cl)C2CCCC=C12 (stereo unspecified) | 15.2
6 | CC(=O)Nc1ncc(Cc2ccc(Cl)cc2Cl)s1 | 3.7
7 | CCc1cccc(C)c1NC(=O)CCC1CCCC1 | -10.9
8 | CC1CC(Nc2ccccc2)c2ccccc2N1C(=O)Cc1cccc2ccccc12 (stereo unspecified) | -5
9 | CCOc1ccc(N(CC(=O)OC)S(=O)(=O)c2ccc(Cl)cc2)cc1 | 10.8
10 | Cc1ccc(Sc2c(C)nn(C(=O)c3ccco3)c2C)cc1 | -3.2
11 | Cc1ccc(CN2CCN(/N=C/C=C\c3ccco3)CC2)cc1 | 18.6
12 | Cc1cc(-c2ccc(F)cc2)nc2cc(C(N)=O)nn12 | 2.7
13 | COC(=O)c1cc(Cl)c(NC(=O)C(c2ccccc2)c2ccccc2)cc1OC | -16.6
14 | COCCN1C(=O)c2ccc3c4c(ccc(c24)C1=O)CC3 | 8.2
15 | Cc1c(C(=O)Nc2ccc(NC(=O)c3ccc(Br)cc3)cc2)cccc1[N+](=O)[O-] | 0.4
16 | Cc1ccccc1NCn1c(=S)oc2ccccc21 | 8.3
17 | COc1ccc(S(=O)(=O)n2nc(C)c(Sc3ccc([N+](=O)[O-])cc3)c2C)cc1 | 9.9
18 | Cc1cc(OCC(=O)NC2CCCCCCC2)ccc1Br | 2.5
19 | O=C1NC(=O)N(c2ccccc2F)C(=O)/C1=C/c1ccc(Sc2ccccc2)o1 | -8.7
20 | c1ccc(-n2ncc3c(N4CCN(C5c6ccccc6-c6ccccc65)CC4)ncnc32)cc1 | 4.3
21 | Cc1cc(-c2ccc(/C=c3\sc4nc5ccccc5n4c3=O)o2)c(C)c([N+](=O)[O-])c1 | 6.6
22 | COCCNC(=O)CN(c1cc(OC)ccc1OC)S(C)(=O)=O | 6.9
23 | O=C(Nc1ccc2oc(-c3ccncc3)nc2c1)c1cccnc1 | 61.6

Row | SMILES | displacement [%]
24 | CCOc1cccc(-c2cc(C(=O)N3CCCCCC3)c3ccccc3n2)c1 | -10.2
25 | CCNC(=O)CC1S/C(=N\N=C(/C)c2ccccc2)NC1=O (stereo unspecified) | 14.6
26 | COC(=O)C1=C(C)N(C)C(C)=C(C(=O)OC)C1c1ccccc1Br | -3.8
27 | COc1nc(-c2ccccc2)c2cc(C)ccc2n1 | -0.4
28 | COc1ccc(N2C(=O)/C(=C\c3ccc(-c4cccc(C(F)(F)F)c4)o3)SC2=S)cc1 | 6.6
29 | CCn1c(/C=N/n2cnnc2)nc2ccccc21 | 9.8
30 | CCN(CC)C(=O)c1ccccc1-c1ccccc1C(=O)O | -5.3
31 | CCCCOC(=O)c1cccc(NC(=O)c2ccccc2Br)c1 | -8.9
32 | Cc1c([N+](=O)[O-])c([N+](=O)[O-])nn1CC(=O)N1CCOCC1 | -5.6
33 | CCOc1ccc(S(=O)(=O)N(CC(=O)OC)c2ccc(C)cc2)cc1 | 9.1
34 | COc1cc(/C=C2/SC(=S)N(CCC(=O)Nc3ccc(C(=O)O)cc3)C2=O)cc(OC)c1OC | 7.9
35 | COc1cc(C(=O)Nc2ncc3c(n2)CC(C)(C)CC3=O)cc(OC)c1OC | 0.8
36 | CC(=O)Nc1ccccc1NC(=O)c1ccccc1I | 5.4
37 | O=C(N/N=C/c1ccc(Cl)cc1)c1ccccc1F | 2.6
38 | Cc1ccc(NC(=O)c2cccs2)cc1C | 1.6
39 | Cc1ccc(N(Cc2ccc(C(=O)NC3CCCC3)cc2)S(C)(=O)=O)cc1C | -9
40 | O=C(/C=N\O)NCCCNCc1ccccc1 | 13.6
41 | CCCOc1cccc(-c2nnc(NC(=O)Nc3cccc(Cl)c3)s2)c1 | 10.5
42 | CCOc1ccc(NC(=O)C2=C(C)NC(=S)NC2c2ccc(OC)c(OC)c2)cc1 (stereo unspecified) | -3.6
43 | O=S(=O)(Nc1ccc(Cl)cc1Cl)c1ccc2ccccc2c1 | 3
44 | CC(=O)Nc1ccc(NC(=O)c2cccc(F)c2)cc1 | 10.3
45 | CCc1ccc(N2C(=O)C3C(c4cccc(Cl)c4)OC4(C(=O)c5ccccc5C4=O)C3C2=O)cc1 (stereo unspecified) | -0.9
46 | CC(C)C(C(=O)O)N1C(=O)/C(=C/c2cccc(O)c2)SC1=S (stereo unspecified) | 2.6

Row | SMILES | displacement [%]
47 | CCOc1ccc2sc(C=NC(C)C)c(O)c2c1 | -13.5
48 | O=C(CSc1nc2ccccc2s1)NCc1ccccc1 | -6
49 | O=S(=O)(N/N=C/c1ccc(O)cc1)c1ccc(Cl)cc1 | 9.5
50 | CCOc1cccc(/C=N/NC(=O)C2=C(C)Nc3ccccc3S2)c1O | -12.5
51 | C=CCc1cccc2cc(C(=O)OCc3ccccc3)c(=O)oc12 | 13.2
52 | COc1ccc2c(c1)-c1c(ssc1=S)C(C)(C)N2C(=O)COc1ccccc1 | -1.1
53 | Fc1ccc(NC(=S)Nc2cccc3ccccc23)cc1 | 3.5
54 | CCN(CC)CCCCCCOc1c(C)cccc1C | 16.4
55 | COC(=O)CCN1C(=O)/C(=C\c2c(F)cccc2Cl)SC1=S | -9.6
56 | Cc1ccc(C(=O)CSc2nc(O)cc(=O)[nH]2)c(C)c1 | 14.5
57 | COc1ccc(Cl)cc1NC(=O)C1=C(C)NC(=S)NC1c1ccc(F)cc1 (stereo unspecified) | 11.9
58 | CCOC(=O)C1=C(O)/C(=C/c2cc(C)n(-c3ccc(C)cc3C)c2C)N=C1C | 13.3
59 | O=C(NC(O)C(Cl)(Cl)Cl)c1ccc([N+](=O)[O-])cc1 (stereo unspecified) | 0.8
60 | Cc1cc(C(=O)N=Nc2c(O)n(CCCC#N)c3ccccc23)n[nH]1 | -28.4
61 | Nc1ccc(Nc2nc(-c3ccncc3)cs2)cc1 | 12.8
62 | Cc1cc(OCC(=O)N2CCN(c3ccccn3)CC2)ccc1Br | -2.4
63 | Cc1cc(C(C)(C)C)cc(C)c1NC(=O)C(F)(F)F | 19.4
64 | COc1cc(/C=C2/C(=O)N(c3ccccc3)N=C2C)ccc1OC(=O)c1cccs1 | 13.4
65 | CCOc1ccc(NC(=O)CC2S/C(=N\N=C\c3ccccc3OC)NC2=O)cc1 (stereo unspecified) | 9.6
66 | Cc1cc(=O)n2[nH]c(-c3ccc(Cl)cc3)cc2n1 | 6.9
67 | CCNC(=O)C(=O)Nc1ccc(OC)cc1 | 9.6
68 | Cc1onc(-c2ccccc2Cl)c1C(=O)N1CCN(c2ccc([N+](=O)[O-])cc2Cl)CC1C (stereo unspecified) | 14.1
69 | Cc1cc([N+](=O)[O-])ccc1NC(=S)NC(=O)c1ccco1 | 8.2

Row | SMILES | displacement [%]
70 | COCCNC(=O)c1nn2c(C(F)(F)F)cc(-c3cccs3)nc2c1Cl | 3.8
71 | COc1ccc(NC(=O)c2cc3ccc4c5ccccc5[nH]c4c3cc2O)cc1 | 1.7
72 | C#CCn1cc(/C=C2\C(=O)NC(=O)N(c3ccc(Br)c(C)c3)C2=O)c2ccccc21 | 6.2
73 | NC(=O)c1cccc(N=Cc2cc([N+](=O)[O-])ccc2O)c1 | -3.4
74 | COC(=O)c1ccc(/C=N\N2CCN(c3ccccc3OC)CC2)cc1 | -6
75 | O=C(/C=C/c1ccccc1F)c1c(-c2ccccc2)c2ccccc2[nH]c1=O | -17.1
76 | COc1ccc(/C=N\N2CCN(c3ccccc3)CC2)c(OC)c1OC | -0.3
77 | COC(=O)c1ccccc1N(Cc1ccccc1)S(=O)(=O)c1ccccc1 | 12.3
78 | CSc1ccc(/C=C/C(=O)c2ccc(NC(=O)c3ccco3)cc2)cc1 | -3.6
79 | CCN(CC)S(=O)(=O)c1ccc2c3c(cccc13)C(=O)N2 | 1.4
80 | Cc1ccc(-n2[nH]c(C)c(C=Nc3ccccc3C(=O)O)c2=O)cc1C | 17.4
81 | O=CNc1nc(C2COc3ccccc3O2)cs1 (stereo unspecified) | -4.2
82 | Cc1ccc(-c2nc3s/c(=C/c4ccc(C(C)C)cc4)c(=O)n3n2)cc1 | 8.5
83 | COc1ccc(/C=C2\C(=O)N(c3nc(-c4ccc(C)cc4)cs3)N=C2C)cc1 | 12.1
84 | COc1ccc(NC(=O)c2ccc(I)cc2)cc1Cl | 13.6
85 | CCCN1C(=O)c2ccccc2NC1c1ccc(OC)c(CSc2ccccn2)c1 (stereo unspecified) | 14.2
86 | CC/C(CNC(=O)c1ccccc1)=N/NC(=O)CN(CC)c1ccccc1 | -12.8
87 | CN1C(=O)C(=Cc2ccc(N(C)C)c(Br)c2)C(=O)N(C)C1=O | 10.2
88 | CC(C)c1nc2sc3c(c2c(=O)n1N)CC(C)(C)OC3 | 4.9
89 | CCN(CC)c1ccc(/C=C2/C(=O)NN(c3ccc(Br)cc3)C2=O)c(O)c1 | 38.1
90 | COc1ccc(C2CC(=O)C3=C(C2)Nc2ccccc2NC3c2ccc(OC(C)=O)c(OC)c2)cc1 (stereo unspecified) | -4.1
91 | COc1cccc2cc(-c3nc(-c4ccccc4)cs3)c(=O)oc12 | 7.8
92 | Cc1nc2c([nH]1)c(=O)oc1ccccc12 | -7.3

Row | SMILES | displacement [%]
93 | COc1ccc(-c2c(C#N)c(N)nc(SCC(=O)c3ccc(O)c(O)c3)c2C#N)cc1 | -39.7
94 | NC(=O)N/N=C(/c1ccc2c(c1)OCCO2)C1CC1 | 0.5
95 | CC1CCCCC1N1CCN(Cc2ccncc2)CC1 (stereo unspecified) | -7.2
96 | Cc1cc(C(=O)N2CCN(c3cccc(Cl)c3)CC2)ccc1[N+](=O)[O-] | 13.2
97 | O=C(Cn1cncn1)c1ccc(F)c(F)c1 | 16.9
98 | COc1cc(Oc2ccc(C(C)C)cc2C)nc(N)n1 | 27.6
99 | CSCCOC(=O)C1=C(C)NC(=O)NC1c1cccc(Cl)c1 (stereo unspecified) | 7.3
100 | CC(C)COc1ccc(C(=O)Nc2cccnc2)cc1 | 2.7
101 | Cc1cc(OCC(=O)NC2CCCC2)ccc1Br | 1.8
102 | COC(=O)C1=C(C)NC2=C(C(=O)c3ccccc32)C1c1ccccc1OCc1ccc(Cl)cc1Cl (stereo unspecified) | -0.4
103 | CN(C)c1ncnc2c1ncn2[C@@H]1OC(CO)C(O)C1O (stereo partly specified) | -10.1
104 | COc1ccc(C(=O)Nc2nc(C)cs2)cc1 | 3.5
105 | COc1ccc(C2CC(=O)Nc3c2cc(Br)c2ccccc32)c(OC)c1 (stereo unspecified) | 8.5
106 | CCOCCOC(=O)C1=C(C)NC2=C(C(=O)CCC2)C1c1ccc(I)cc1 (stereo unspecified) | 2.1
107 | Cc1cccc(C(=O)O/N=C(\N)c2ccc(Br)cc2)c1 | -0.6
108 | CCOc1ccc2c(c1)/C(=C1/SC(C(C)=O)=C(c3ccccc3)S1)C(=S)C(C)(C)N2 | 17
109 | CC(=O)NC1=NC(=O)/C(=C\c2cccs2)S1 | 109
110 | O=[N+]([O-])c1ccc(NCCNC(=S)Nc2ccc(Cl)cc2)nc1 | -3.1
111 | COc1ccc(S(=O)(=O)N(CC(=O)NCc2ccc(Cl)cc2)c2cc(C)cc(C)c2)cc1OC | -1.6
